Assay results reported in publication PMC5892938.
This is one part of the list. At the low end of the ranking the order means little.

molecular target: GST-SBP-SLBP (stem-loop binding protein) (UniProt Q14493); test: targeted RNA Bind-n-Seq; details: RBNS binding buffer: 25 mM Tris pH 7.5, 150 mM KCl, 3 mM MgCl2, 0.1% Tween, 0.5 mg/mL BSA, 1 mM DTT; 27 nM protein, 750 pM RNA pool; temperature not stated; high values mean tight binding;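 note: DESeq read counts versus GST-SBP nonspecific binding control pulldown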

Sequence | binding signal (log2 fold change)
GGUCACGUCUCAAUCAACUCAAUUCCAGGAGUUUACUCCUGCAUAUUCAACAGCUCGCAGUCAAG | 0.0244
GGUCACGUCUCAAUCAACUCAAUAGAGGGGGGGAAAACCCCUUUACCCUCGGAAUCAACAGCUCGCAGUCAAG | -0.296
GGUCACGUCUCAAUCAACUCCCAAGAGGGGGGGAAAACCCCUUUACCCUCCCAAUCAACAGCUCGCAGUCAAG | -0.13
GGUCACGUCUCAAUCAACUCUAUUCCAGGAGUUUACUCCUGUUUAUUCAACAGCUCGCAGUCAAG | -0.188
GGUCACGUCUCAAUCAACUCUUCCCCCAGGGAAAUCCCUGGCUAUUUCAACAGCUCGCAGUCAAG | 0.0403
GGUCACGUCUCAAUCAACUCAACUCCAGGAGUUUCCUCCUGCUUUCUCAACAGCUCGCAGUCAAG | 0.00153
GGUCACGUCUCAAUCAACUCUAUGGCAGGAGUUUACUCCUGGAUAUUCAACAGCUCGCAGUCAAG | -0.182
GGUCACGUCUCAAUCAACUCGUUUUCAGGAGUUUACUCCUGUUUUUUCAACAGCUCGCAGUCAAG | -0.174
GGUCACGUCUCAAUCAACUCAUUCCCAGGAGUUUACUCCUGUUUUUUCAACAGCUCGCAGUCAAG | 0.00676
GGUCACGUCUCAAUCAACUCAGUUCCAGGAGUUUCCUCCUGCUUUCUCAACAGCUCGCAGUCAAG | 0.0634
GGUCACGUCUCAAUCAACUCUUUCUCAGGAGUUUACUCCUGUUAUUUCAACAGCUCGCAGUCAAG | 0.016
GGUCACGUCUCAAUCAACUCUAUUCCAGGAGUUUACUCCUGUUAUUUCAACAGCUCGCAGUCAAG | -0.375
GGUCACGUCUCAAUCAACUCAUUUCCAGGAGUUUCCUCCUGUUUACUCAACAGCUCGCAGUCAAG | 0.0473
GGUCACGUCUCAAUCAACUCUAUUCCAGGAGUUUUCUCCUGUAUAUUCAACAGCUCGCAGUCAAG | 0.0267
GGUCACGUCUCAAUCAACUCAAUUUCCAGGGAAAGCCCUGGCUUAUUCAACAGCUCGCAGUCAAG | -0.294
GGUCACGUCUCAAUCAACUCUUUUUCAGGAGUUUUCUCCUGUAUACUCAACAGCUCGCAGUCAAG | 0.0533
GGUCACGUCUCAAUCAACUCAAUCUCCAGGGAAAACCCUGGCAAAUUCAACAGCUCGCAGUCAAG | -0.293
GGUCACGUCUCAAUCAACUCUUCUCCCAGGGAAAUCCCUGGCAAAUUCAACAGCUCGCAGUCAAG | -0.0463
GGUCACGUCUCAAUCAACUCACAAGAGGGGGGGAAAACCCCUUUACCCUCAAAUUCAACAGCUCGCAGUCAAG | -0.178
GGUCACGUCUCAAUCAACUCAAUCUCCAGGGAAAGCCCUGGCAUUCUCAACAGCUCGCAGUCAAG | 0.139
GGUCACGUCUCAAUCAACUCUACAGAGGGGGGGAAAACCCCUUUUCCCUCAAAAUCAACAGCUCGCAGUCAAG | -0.532
GGUCACGUCUCAAUCAACUCAAUCCCCAGGGAAAGCCCUGGCUAAUUCAACAGCUCGCAGUCAAG | -0.197
GGUCACGUCUCAAUCAACUCCACUGAGGGGGGGAAAACCCCUUUACCCUCCAAUUCAACAGCUCGCAGUCAAG | -0.407
GGUCACGUCUCAAUCAACUCUUCUCCCAGGGAAAGCCCUGGCUUUUUCAACAGCUCGCAGUCAAG | 0.00677
GGUCACGUCUCAAUCAACUCUUCGCCCAGGGAAACCCCUGGUUUUUUCAACAGCUCGCAGUCAAG | -0.171

Sequence | binding signal (log2 fold change)
GGUCACGUCUCAAUCAACUCAUUCCCCAGGGAAAGCCCUGGUUAACUCAACAGCUCGCAGUCAAG | -0.116
GGUCACGUCUCAAUCAACUCUUCGUCCAGGGAAACCCCUGGUUUUCUCAACAGCUCGCAGUCAAG | 0.36
GGUCACGUCUCAAUCAACUCAUCGUCAGGAGUUUACUCCUGUAAUCUCAACAGCUCGCAGUCAAG | 0.238
GGUCACGUCUCAAUCAACUCUAUCUCCAGGGAAACCCCUGGCUUUUUCAACAGCUCGCAGUCAAG | -0.0484
GGUCACGUCUCAAUCAACUCAUCCUCAGGAGUUUUCUCCUGCUAUGUCAACAGCUCGCAGUCAAG | 0.0569
GGUCACGUCUCAAUCAACUCAUUUCCAGGAGUUUACUCCUGCUUACUCAACAGCUCGCAGUCAAG | -0.181
GGUCACGUCUCAAUCAACUCAUCCCCAGGAGUUUACUCCUGCUAAUUCAACAGCUCGCAGUCAAG | 0.136
GGUCACGUCUCAAUCAACUCAUUAGAGGGGGGGAAAACCCCUUUACCCUCAAACUCAACAGCUCGCAGUCAAG | -0.427
GGUCACGUCUCAAUCAACUCUAUCCCCAGGGAAAACCCUGGUAUAUUCAACAGCUCGCAGUCAAG | -0.312
GGUCACGUCUCAAUCAACUCUAUAGAGGGGGGGAAAACCCCUUUGCCCUCAAUCUCAACAGCUCGCAGUCAAG | -0.403
GGUCACGUCUCAAUCAACUCUAUUUCAGGAGUUUACUCCUGCUUUUUCAACAGCUCGCAGUCAAG | 0.0737
GGUCACGUCUCAAUCAACUCAUCAGAGGGGGGGAAAACCCCUUUGCCCUCAAAAUCAACAGCUCGCAGUCAAG | -0.0103
GGUCACGUCUCAAUCAACUCAAUUUCCAGGGAAAGCCCUGGUAUACUCAACAGCUCGCAGUCAAG | 0.343
GGUCACGUCUCAAUCAACUCUUCGUCAGGAGUUUCCUCCUGUUAAUUCAACAGCUCGCAGUCAAG | 0.0278
GGUCACGUCUCAAUCAACUCAAUCUCCAGGGAAAACCCUGGUAUACUCAACAGCUCGCAGUCAAG | 0.131
GGUCACGUCUCAAUCAACUCAAAAGAGGGGGGGAAAACCCCUUUACCCUCCGUUUCAACAGCUCGCAGUCAAG | -0.372
GGUCACGUCUCAAUCAACUCAAACGAGGGGGGGAAAACCCCUUUACCCUCAAUGUCAACAGCUCGCAGUCAAG | -0.228
GGUCACGUCUCAAUCAACUCAUUUUCCAGGGAAAACCCUGGCAUUUUCAACAGCUCGCAGUCAAG | -0.128
GGUCACGUCUCAAUCAACUCAAUUCCCAGGGAAAUCCCUGGCUAACUCAACAGCUCGCAGUCAAG | -0.0882
GGUCACGUCUCAAUCAACUCAGUCCCAGGAGUUUGCUCCUGCUUUUUCAACAGCUCGCAGUCAAG | 0.0623
GGUCACGUCUCAAUCAACUCUUUCGAGGGGGGGAAAACCCCUUUACCCUCAUUUUCAACAGCUCGCAGUCAAG | -0.381
GGUCACGUCUCAAUCAACUCUUAAGAGGGGGGGAAAACCCCUUUACCCUCCGUAUCAACAGCUCGCAGUCAAG | -0.283
GGUCACGUCUCAAUCAACUCCCUAGAGGGGGGGAAAACCCCUUUGCCCUCAAACUCAACAGCUCGCAGUCAAG | -0.128
GGUCACGUCUCAAUCAACUCUACUUCCAGGGAAAACCCUGGUUAUCUCAACAGCUCGCAGUCAAG | -0.0077
GGUCACGUCUCAAUCAACUCUUUUUCAGGAGUUUUCUCCUGCUUUUUCAACAGCUCGCAGUCAAG | -0.0682

Sequence | binding signal (log2 fold change)
GGUCACGUCUCAAUCAACUCAUUCUCCAGGGAAAUCCCUGGUAUUCUCAACAGCUCGCAGUCAAG | 0.218
GGUCACGUCUCAAUCAACUCAGUUCCCAGGGAAAGCCCUGGCAUAUUCAACAGCUCGCAGUCAAG | 0.0778
GGUCACGUCUCAAUCAACUCUUUAGAGGGGGGGAAAACCCCUUUACCCUCCGUUUCAACAGCUCGCAGUCAAG | -0.144
GGUCACGUCUCAAUCAACUCCAAAGAGGGGGGGAAAACCCCUUUACCCUCACUUUCAACAGCUCGCAGUCAAG | 0.398
GGUCACGUCUCAAUCAACUCUUUUCCAGGAGUUUACUCCUGCUAUUUCAACAGCUCGCAGUCAAG | -0.167
GGUCACGUCUCAAUCAACUCUACAGAGGGGGGGAAAACCCCUUUACCCUCAACCUCAACAGCUCGCAGUCAAG | -0.464
GGUCACGUCUCAAUCAACUCUCUAGAGGGGGGGAAAACCCCUUUACCCUCGUUCUCAACAGCUCGCAGUCAAG | -0.323
GGUCACGUCUCAAUCAACUCAGUCCCCAGGGAAAACCCUGGCAAAUUCAACAGCUCGCAGUCAAG | -0.0242
GGUCACGUCUCAAUCAACUCCAAAGAGGGGGGGAAAACCCCUUUGCCCUCAUCAUCAACAGCUCGCAGUCAAG | -0.322
GGUCACGUCUCAAUCAACUCAUGUCCAGGAGUUUCCUCCUGUUUUCUCAACAGCUCGCAGUCAAG | -0.243
GGUCACGUCUCAAUCAACUCUAUUUCAGGAGUUUCCUCCUGCUUAUUCAACAGCUCGCAGUCAAG | -0.0529
GGUCACGUCUCAAUCAACUCUACUUCAGGAGUUUACUCCUGUAUAUUCAACAGCUCGCAGUCAAG | 0.084
GGUCACGUCUCAAUCAACUCCCAGGAGGGGGGGAAAACCCCUUUACCCUCAAUCUCAACAGCUCGCAGUCAAG | -0.283
GGUCACGUCUCAAUCAACUCUCCAGAGGGGGGGAAAACCCCUUUGCCCUCCACAUCAACAGCUCGCAGUCAAG | 0.318
GGUCACGUCUCAAUCAACUCCUAAGAGGGGGGGAAAACCCCUUUACCCUCACUAUCAACAGCUCGCAGUCAAG | 0.433
GGUCACGUCUCAAUCAACUCCUAAGAGGGGGGGAAAACCCCUUUACCCUCCACGUCAACAGCUCGCAGUCAAG | -0.0502
GGUCACGUCUCAAUCAACUCUUCCUCAGGAGUUUCCUCCUGCUAAUUCAACAGCUCGCAGUCAAG | -0.0645
GGUCACGUCUCAAUCAACUCUUAAGAGGGGGGGAAAACCCCUUUGCCCUCGAAAUCAACAGCUCGCAGUCAAG | 0.0747
GGUCACGUCUCAAUCAACUCUAUCCCCAGGGAAACCCCUGGCUAUUUCAACAGCUCGCAGUCAAG | -0.00996
GGUCACGUCUCAAUCAACUCUUCUUCAGGAGUUUCCUCCUGUAUUCUCAACAGCUCGCAGUCAAG | 0.187
GGUCACGUCUCAAUCAACUCAUCCGAGGGGGGGAAAACCCCUUUACCCUCAACCUCAACAGCUCGCAGUCAAG | -0.308
GGUCACGUCUCAAUCAACUCAUUUUCAGGAGUUUCCUCCUGCAAUCUCAACAGCUCGCAGUCAAG | -0.0778
GGUCACGUCUCAAUCAACUCUUAAGAGGGGGGGAAAACCCCUUUACCCUCCGCAUCAACAGCUCGCAGUCAAG | -0.353
